The other results are listed elsewhere or left out.
T1: UNK ZnF1-3 (human, UniProt Q9C0B0 31-174)
T1 sequence: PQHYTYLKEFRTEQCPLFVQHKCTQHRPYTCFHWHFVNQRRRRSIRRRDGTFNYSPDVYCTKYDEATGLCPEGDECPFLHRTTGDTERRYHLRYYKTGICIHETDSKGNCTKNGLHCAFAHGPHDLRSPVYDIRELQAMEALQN

B1: 121704358_121709814_988_5pUTR_ENSMUSG00000042744_ENSMUST00000119892|mouse|control|control (ssRNA)
RNA: GGGAGUUCUACAGUCCGACGAUCCCUAUAUAAAACAUCGGCGACAGGCAGGGAGCCCAGCUCAGUCUGUCUCUGCAGCAGGUGAACUGUGUGGACAAAGGUCUUCAGUGACCCCCUGGCACACGCCAAAGCCACCAGGGCAGCCAACAGAGGAUUGAGCAUCA
B2: chr11:29999966:29999967:-_ENSMUSG00000020315_ENSMUST00000011877|mus_hu|FALSE|FALSE (ssRNA)
RNA: GGGAGUUCUACAGUCCGACGAUCCAUGUCGUGUGUUAGUAAGUGAUGCCAGAUACAAAUGGUUUGGUCUGUAGAGUUAAUGUGGAGCUGCACUGUGGCUGCAGCAAGAUCAUAAUAUGCGAUCUGUUUAAUAAAGGUUAGCCCCAACAGAGGAUUGAGCAUCA
B3: chr6:42301883:42301884:+_ENSMUSG00000029860_ENSMUST00000070635|mus_hu|FALSE|FALSE (ssRNA)
RNA: GGGAGUUCUACAGUCCGACGAUCCACGGGGUGCUGCUUCUCCUGCACUCGGGGCUUCUCCCUCUGCUGGGCAUAGGUGAAGCUGGGAGGUUGAGGGGAGCCUGUGCCAGCAGAAAGAGCUUCGGGGUGCCCCAAUUUUUGAUUCAACAGAGGAUUGAGCAUCA
B4: chr11:6247107:6247108:+_ENSMUSG00000020456_ENSMUST00000003461|mus_hu|FALSE|FALSE (ssRNA)
RNA: GGGAGUUCUACAGUCCGACGAUCGAACAUGGGCUCAUCCAUCUCGUUGUGGCCGUUGCGCCGGUAACACACCAAAUCGACAACCACGUCCUUGUGGAAGGUGCUCCUCCACUCGGCCGCCACUUUGCACACGUACAUGACAGCCAACAGAGGAUUGAGCAUCA
B5: chr11:34129765:34129766:+_ENSG00000135372_ENST00000257829|hu_mus|motif|central (ssRNA)
RNA: GGGAGUUCUACAGUCCGACGAUCCCAUUCUCAAUGAGAAUUCGAAUUCGGUUAUCCACCUUCUUCCGAUUCAUGAUGAAAAGCGGUCACUGCGCCCUGCUCCGGCCGACACCAGGCAGCUGCACAACGGAAGCACGUGAAGACCAACAGAGGAUUGAGCAUCA
B6: chr7:140404665:140404666:+_ENSG00000090266_ENST00000247866|hu_hu|hu_hu_hu_mus_False|18_58 (ssRNA)
RNA: GGGAGUUCUACAGUCCGACGAUCUGCUCCUACUCGUCCAGAGAGUUUACAGUGUCAGUCCUCGUCAUCAGGAGGGAUACCUAAUUCUUCAUCUGUCCACUGUGAAGGAUCUGGAUACGGAAAGUGACCCAGCACAGCAUCCGACAACAGAGGAUUGAGCAUCA
B7: chr4:140556289:140556290:+_ENSMUSG00000036622_ENSMUST00000037055|mus_mus|mus_mus_mus_hu_False|1_18 (ssRNA)
RNA: GGGAGUUCUACAGUCCGACGAUCGAUGGAGCUCACCAGGCCCCCUUUUGCCGUGCAGAACCCUGUGCGGGUCACCACUGCCAGGACGUGCGGUCCCACAUAGGCCCGGGCCUGCAAAAUGAGGGUGCCGCAGAAGAGGGUGUGCAACAGAGGAUUGAGCAUCA
B8: 22330225_22334248_969_3pUTR_ENSG00000058600_ENST00000564750|human|control|control (ssRNA)
RNA: GGGAGUUCUACAGUCCGACGAUCAAGUCUCGGCCCCUGCAGAGCACCUCAGCAGGCACGCCGCUGUGAGGGCUGGACGAGUCCUUGGGGUAUAGGAUGUCACUCUUCACCACCCAGUUCCCUUGGACCAACAUCGCCACCUUCCAACAGAGGAUUGAGCAUCA
B9: chr10:7519382:7519383:+_ENSMUSG00000015757_ENSMUST00000015901|mus_mus|FALSE|FALSE (ssRNA)
RNA: GGGAGUUCUACAGUCCGACGAUCAGGCUCGGGUGAUCGAUCAGGAAUUAAUAAAUCAGGAGGGUCAUCAAAUGGAUCAUCUAAAAUCACUGUAUGAUUUAUCCUUAUAUCUUGAUAUGGUACAAAAUCCUUGUCCACAAAGGUCAACAGAGGAUUGAGCAUCA
B10: chr10:106022761:106022762:+_ENSG00000148834_ENST00000369713|hu_hu|FALSE|FALSE (ssRNA)
RNA: GGGAGUUCUACAGUCCGACGAUCAAAUUCUUUACGAAAUUCUUCUUUUAGGCCAGCAUAGUCUUCUUUAUUUUGGCUUCUAAUAAAGCUUCCUACCAAGGAUGGCACCUUAGAAAACAACUCUAAGAUCAUCUUCUGGCAAGCCAACAGAGGAUUGAGCAUCA
B11: chr10:33190432:33190433:-_ENSG00000150093_ENST00000302278|hu_mus|hu_hu_hu_mus_True|1_68 (ssRNA)
RNA: GGGAGUUCUACAGUCCGACGAUCUACAUUUUCCAAACCUGCAUGUGAAUAAAACCCUGGCCACAGAGCCCUAAAGCUACCCUACUGUGACUAAGAUGCUGCUGCUGUGAGCUUGGUGUUGCAAAAUCCGCCUGAGUCAGUACUCAACAGAGGAUUGAGCAUCA
B12: chr7:151048522:151048523:+_ENSG00000013374_ENST00000566856|hu_mus|hu_hu_hu_mus_True|8_18 (ssRNA)
RNA: GGGAGUUCUACAGUCCGACGAUCCUGUUUCUUAUUUAUUACGAUCUUGAUGUAAUUUUCUUGAAAUCCGAAAGUUUCAGCUAUUUGACACCUCAGGUCUCUACCAGUGACAUGCAAUCGGGUCUCCAACAAGUUUUUCUUAUCCAACAGAGGAUUGAGCAUCA
B13: chr1:41461666:41461667:+_ENSG00000171793_ENST00000372621|hu_mus|FALSE|FALSE (ssRNA)
RNA: GGGAGUUCUACAGUCCGACGAUCCCAUUUCAUCAGCAUCUUUCGUGACUGUCUCUCAAUAGGAAGGUCAAGUCUCCGAAGAAAGUAGUCUACAACCCCUUGCUCUUCUAACAACAAGGGUACCCGGUAGAUGGAUGAAACAUCCAACAGAGGAUUGAGCAUCA
B14: chr17:38574076:38574077:-_ENSG00000131747_ENST00000423485|hu_hu|FALSE|FALSE (ssRNA)
RNA: GGGAGUUCUACAGUCCGACGAUCAAUGGUGACACUUCCAUGGUGACGGUCGUGAAGGGGCUCAAGAACCCUGAAAGCGACUAAACAGGCAGGACCCCACGAGACCACCCCCGACCAAGCCGCUUCUCCACAGACGCGCGUCGGCAACAGAGGAUUGAGCAUCA

target: T1, UNK ZnF1-3; test: nsRBNS (natural sequence RNA bind-n-seq); RBNS binding buffer (assumed for nsRBNS): 25 mM Tris pH 7.5, 150 mM KCl, 3 mM MgCl2, 0.01% Triton X-100, 500 ug/ml BSA, 20 U/ml SUPERase-In, 4 C; UNK is unkempt and MSI1 is Musashi-1; names of the RNAs are library labels; protein concentration not given here; high values mean tight binding

First: B1
Second: B2
The binding signal of the first is lower: 0.438 enrichment R for the first, 1.6 enrichment R for the second.

Compared with B3, B4 is lower in binding signal: 1.1 enrichment R for the first, 0.561 enrichment R for the second.

First: B5
Second: B6
The binding signal of the first is higher: 1.44 enrichment R for the first, 1.13 enrichment R for the second.

Compared with B7, B8 is higher in binding signal: 0.349 enrichment R for the first, 0.641 enrichment R for the second.

First: B9
Second: B10
The binding signal of the first is lower: 0.846 enrichment R for the first, 0.922 enrichment R for the second.

Compared with B11, B12 is lower in binding signal: 0.908 enrichment R for the first, 0.485 enrichment R for the second.

Compared with B13, B14 is higher in binding signal: 0.668 enrichment R for the first, 0.72 enrichment R for the second.

Source: publication PMC12136788
